In paper PMC9911399, “Two distinct binding modes provide the RNA-binding protein RbFox with extraordinary sequence specificity”:
Substitutions are numbered along the chain they refer to; changes in the protein carry UniProt numbers. This is one part of the list.

T1: RBFOX1 RRM (Homo sapiens, UniProt Q9NWB1 109-208)
T1 sequence: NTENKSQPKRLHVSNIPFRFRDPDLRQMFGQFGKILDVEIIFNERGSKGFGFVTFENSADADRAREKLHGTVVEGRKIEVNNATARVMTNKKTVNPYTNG

B1: GUUUCCU (DNA:RNA)
RNA: GGGAGACCGGAAUUCAGAUUGUCCGUUUCCUUUAAAUCCCGUCGUAGCCACCA
DNA 1: CAATCTGAATTCCGGTCTCCC
DNA 2: TGGTGGCTACGACGGGATT
B2: CUCGCUC (DNA:RNA)
RNA: B1 RNA with G25C, U27C, U28G, C30U, U31C
DNA 1: CAATCTGAATTCCGGTCTCCC
DNA 2: TGGTGGCTACGACGGGATT
B3: GCACCAC (DNA:RNA)
RNA: B1 RNA with U26C, U27A, U28C, C30A, U31C
DNA 1: CAATCTGAATTCCGGTCTCCC
DNA 2: TGGTGGCTACGACGGGATT
B4: CACUUCU (DNA:RNA)
RNA: B1 RNA with G25C, U26A, U27C, C29U
DNA 1: CAATCTGAATTCCGGTCTCCC
DNA 2: TGGTGGCTACGACGGGATT
B5: UUAUCGU (DNA:RNA)
RNA: B1 RNA with G25U, U27A, C30G
DNA 1: CAATCTGAATTCCGGTCTCCC
DNA 2: TGGTGGCTACGACGGGATT
B6: UAGGCGU (DNA:RNA)
RNA: B1 RNA with G25U, U26A, U27G, U28G, C30G
DNA 1: CAATCTGAATTCCGGTCTCCC
DNA 2: TGGTGGCTACGACGGGATT
B7: CAACCGC (DNA:RNA)
RNA: B1 RNA with G25C, U26A, U27A, U28C, C30G, U31C
DNA 1: CAATCTGAATTCCGGTCTCCC
DNA 2: TGGTGGCTACGACGGGATT
B8: CUUUGGG (DNA:RNA)
RNA: B1 RNA with G25C, C29G, C30G, U31G
DNA 1: CAATCTGAATTCCGGTCTCCC
DNA 2: TGGTGGCTACGACGGGATT
B9: GUUUGAA (DNA:RNA)
RNA: B1 RNA with C29G, C30A, U31A
DNA 1: CAATCTGAATTCCGGTCTCCC
DNA 2: TGGTGGCTACGACGGGATT
B10: CCAAACU (DNA:RNA)
RNA: B1 RNA with G25C, U26C, U27A, U28A, C29A
DNA 1: CAATCTGAATTCCGGTCTCCC
DNA 2: TGGTGGCTACGACGGGATT
B11: GCUACCC (DNA:RNA)
RNA: B1 RNA with U26C, U28A, U31C
DNA 1: CAATCTGAATTCCGGTCTCCC
DNA 2: TGGTGGCTACGACGGGATT
B12: UUUAAAG (DNA:RNA)
RNA: B1 RNA with G25U, U28A, C29A, C30A, U31G
DNA 1: CAATCTGAATTCCGGTCTCCC
DNA 2: TGGTGGCTACGACGGGATT
B13: ACAGCCU (DNA:RNA)
RNA: B1 RNA with G25A, U26C, U27A, U28G
DNA 1: CAATCTGAATTCCGGTCTCCC
DNA 2: TGGTGGCTACGACGGGATT
B14: GAUACGU (DNA:RNA)
RNA: B1 RNA with U26A, U28A, C30G
DNA 1: CAATCTGAATTCCGGTCTCCC
DNA 2: TGGTGGCTACGACGGGATT
B15: GACACGC (DNA:RNA)
RNA: B1 RNA with U26A, U27C, U28A, C30G, U31C
DNA 1: CAATCTGAATTCCGGTCTCCC
DNA 2: TGGTGGCTACGACGGGATT
B16: UGGAUCA (DNA:RNA)
RNA: B1 RNA with G25U, U26G, U27G, U28A, C29U, U31A
DNA 1: CAATCTGAATTCCGGTCTCCC
DNA 2: TGGTGGCTACGACGGGATT
B17: GUGGCAG (DNA:RNA)
RNA: B1 RNA with U27G, U28G, C30A, U31G
DNA 1: CAATCTGAATTCCGGTCTCCC
DNA 2: TGGTGGCTACGACGGGATT
B18: AGCGGAG (DNA:RNA)
RNA: GGGAGACCGGAAUUCAGAUUGUCCAGCGGAGUUAAAUCCCGUCGUAGCCACCA
DNA 1: CAATCTGAATTCCGGTCTCCC
DNA 2: TGGTGGCTACGACGGGATT
B19: AGUAGGU (DNA:RNA)
RNA: B18 RNA with C27U, G28A, A30G, G31U
DNA 1: CAATCTGAATTCCGGTCTCCC
DNA 2: TGGTGGCTACGACGGGATT
B20: GGUUUUU (DNA:RNA)
RNA: B1 RNA with U26G, C29U, C30U
DNA 1: CAATCTGAATTCCGGTCTCCC
DNA 2: TGGTGGCTACGACGGGATT
B21: ACAACCC (DNA:RNA)
RNA: B1 RNA with G25A, U26C, U27A, U28A, U31C
DNA 1: CAATCTGAATTCCGGTCTCCC
DNA 2: TGGTGGCTACGACGGGATT
B22: CAGUGAU (DNA:RNA)
RNA: B18 RNA with A25C, G26A, C27G, G28U, G31U
DNA 1: CAATCTGAATTCCGGTCTCCC
DNA 2: TGGTGGCTACGACGGGATT
B23: GGAAAGG (DNA:RNA)
RNA: B18 RNA with A25G, C27A, G28A, G29A, A30G
DNA 1: CAATCTGAATTCCGGTCTCCC
DNA 2: TGGTGGCTACGACGGGATT
B24: UCCAUAA (DNA:RNA)
RNA: B18 RNA with A25U, G26C, G28A, G29U, G31A
DNA 1: CAATCTGAATTCCGGTCTCCC
DNA 2: TGGTGGCTACGACGGGATT
B25: AGGCUUC (DNA:RNA)
RNA: B18 RNA with C27G, G28C, G29U, A30U, G31C
DNA 1: CAATCTGAATTCCGGTCTCCC
DNA 2: TGGTGGCTACGACGGGATT
B26: AUAGGCU (DNA:RNA)
RNA: B18 RNA with G26U, C27A, A30C, G31U
DNA 1: CAATCTGAATTCCGGTCTCCC
DNA 2: TGGTGGCTACGACGGGATT
B27: GCAGGAG (DNA:RNA)
RNA: B18 RNA with A25G, G26C, C27A
DNA 1: CAATCTGAATTCCGGTCTCCC
DNA 2: TGGTGGCTACGACGGGATT
B28: AAGAUUC (DNA:RNA)
RNA: B18 RNA with G26A, C27G, G28A, G29U, A30U, G31C
DNA 1: CAATCTGAATTCCGGTCTCCC
DNA 2: TGGTGGCTACGACGGGATT
B29: UGGGUUC (DNA:RNA)
RNA: B18 RNA with A25U, C27G, G29U, A30U, G31C
DNA 1: CAATCTGAATTCCGGTCTCCC
DNA 2: TGGTGGCTACGACGGGATT
B30: AUCGACU (DNA:RNA)
RNA: B18 RNA with G26U, G29A, A30C, G31U
DNA 1: CAATCTGAATTCCGGTCTCCC
DNA 2: TGGTGGCTACGACGGGATT
B31: AAGGUAG (DNA:RNA)
RNA: B18 RNA with G26A, C27G, G29U
DNA 1: CAATCTGAATTCCGGTCTCCC
DNA 2: TGGTGGCTACGACGGGATT

Each binder was assayed against T1, RBFOX1 RRM (assay: EMSA; HiTS-Eq, 1 nM pool, 10 min; buffer printed only for the single-RNA assays: 10 mM Tris pH 7.5, 150 mM NaCl, 3.4 mM EDTA, 0.001% NP-40, 30 C). Settings: tags: His6 N-terminal (pET28a); label: 5' 32P.
In short: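 Relative association constants, normalised to the cognate motif, were derived by comparing read counts of each RNA species with those of the control reaction. The RNA sequenced was the free fraction, separated by 8% native PAGE after a 10 min equilibration in 50 µL of 1 nM 5′-radiolabelled RNA (7 randomized nucleotides) with increasing concentrations of purified wild-type or mutant RbFox RRM.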

| Binder | binding signal |
| --- | --- |
| B1 | 0.0146 KA relative to UGCAUGU |
| B2 | 0.00968 KA relative to UGCAUGU |
| B3 | 0.00636 KA relative to UGCAUGU |
| B4 | 0.00466 KA relative to UGCAUGU |
| B5 | 0.0147 KA relative to UGCAUGU |
| B6 | 0.0146 KA relative to UGCAUGU |
| B7 | 0.00293 KA relative to UGCAUGU |
| B8 | 0.00295 KA relative to UGCAUGU |
| B9 | 0.023 KA relative to UGCAUGU |
| B10 | 0.000321 KA relative to UGCAUGU |
| B11 | 0.0102 KA relative to UGCAUGU |
| B12 | 0.00776 KA relative to UGCAUGU |
| B13 | 0.0038 KA relative to UGCAUGU |
| B14 | 0.0132 KA relative to UGCAUGU |
| B15 | 0.00981 KA relative to UGCAUGU |
| B16 | 0.0231 KA relative to UGCAUGU |

| Binder | binding signal |
| --- | --- |
| B17 | 0.0182 KA relative to UGCAUGU |
| B18 | 0.00961 KA relative to UGCAUGU |
| B19 | 0.00705 KA relative to UGCAUGU |
| B20 | 0.00799 KA relative to UGCAUGU |
| B21 | 0.00239 KA relative to UGCAUGU |
| B22 | 0.00947 KA relative to UGCAUGU |
| B23 | 0.0155 KA relative to UGCAUGU |
| B24 | 0.000205 KA relative to UGCAUGU |
| B25 | 0.0172 KA relative to UGCAUGU |
| B26 | 0.00605 KA relative to UGCAUGU |
| B27 | 0.00845 KA relative to UGCAUGU |
| B28 | 0.00483 KA relative to UGCAUGU |
| B29 | 0.0352 KA relative to UGCAUGU |
| B30 | 0.00559 KA relative to UGCAUGU |
| B31 | 0.0097 KA relative to UGCAUGU |
